Measured values as given in the supplement of paper PMC10126150.
Values marked as one replicate rest on one cluster of the flow cell; about a third of the high ones do not repeat.

System: ATP
Assay: switch fluorescence ratio, 500 uM ATP over buffer (Cy3 cluster intensity, sum of 5 cycles each) (fold (ratio)); higher = stronger signal-on switching upon ATP binding; sequences stand for … in TCGTCGGCAGCGTCAGATGTGTATAAGAGACAGTTTTTTTTTTTTTTTTTTTTTTTTT…TC
Conditions: aptamer strand: ATP DNA aptamer (quencher-CACCTGGGGGAGTATTGCGGAGGAAGG + anchor), 100 nM annealed; ATP concentration: 500 uM; one replicate
How it was run: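 Switching-strand clusters labelled with Cy3 on a modified Illumina MiSeq flow-cell were annealed to 100 nM quencher-labelled ATP aptamer, imaged in selection buffer, and re-imaged after 15 min with 500 uM ATP at 22 °C. This was done over five cycles with NaOH stripping and re-annealing in between. The fluorescence ratio is summed target-cycle over summed buffer-cycle Cy3 intensity per cluster, averaged per switch-domain sequence, excluding clusters outside 100-1000 RFU.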
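Note: ATP exposure 15 min at 22 °C before imaging.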

CAGCACGGCA
switch fluorescence ratio: 1.1

GGCTTAAATA
switch fluorescence ratio: 1

TGCTATTTCG
switch fluorescence ratio: 1.02

CAGTCTCTAG
switch fluorescence ratio: 0.979

CATAACGCA
switch fluorescence ratio: 1.35

TTAAGCATCC
switch fluorescence ratio: 1.18

CGAGGACCGA
switch fluorescence ratio: 1.03

GATTGTTGAC
switch fluorescence ratio: 1.03

TGTGGGCATA
switch fluorescence ratio: 0.976

CACGGGCACC
switch fluorescence ratio: 1.06

CTCGCCGGTT
switch fluorescence ratio: 1

AAAAATCTAT
switch fluorescence ratio: 1.03

AGACACGGCG
switch fluorescence ratio: 0.971

TGGAGCCAT
switch fluorescence ratio: 1.07

CACCGGATGG
switch fluorescence ratio: 1.02

GATTCACCGC
switch fluorescence ratio: 1.28

GTCCCGGTTG
switch fluorescence ratio: 1.08

CGCACTATCC
switch fluorescence ratio: 2.7

ACAGTACA
switch fluorescence ratio: 1.38

TCGCAGAAGA
switch fluorescence ratio: 1

CTGACTGGAG
switch fluorescence ratio: 1.03

GATTATAGAC
switch fluorescence ratio: 1.01

TGCCAGCACG
switch fluorescence ratio: 1.01

AGCAGGGCAG
switch fluorescence ratio: 1

AAAGCGCGTG
switch fluorescence ratio: 1.02

ACCGTTAAAC
switch fluorescence ratio: 1.28

GACAAACTTG
switch fluorescence ratio: 1.19

ATACTTGGTT
switch fluorescence ratio: 0.993

CCCGGCATTA
switch fluorescence ratio: 3.31

CATACAGCAA
switch fluorescence ratio: 4.06

GGTGACGCTT
switch fluorescence ratio: 1.02

CAGCGGTGGA
switch fluorescence ratio: 1.05

AACCCCTGAT
switch fluorescence ratio: 1.03

ACTTCGTAAA
switch fluorescence ratio: 0.997

AATGAATCGG
switch fluorescence ratio: 1.04

TAAGTGATTA
switch fluorescence ratio: 0.975

AGGGGTCCT
switch fluorescence ratio: 1.02

GTGAGGCACA
switch fluorescence ratio: 1.01

GATTAAGGAT
switch fluorescence ratio: 1.02

CGTAATTCGA
switch fluorescence ratio: 1.08

TTGGTTTATT
switch fluorescence ratio: 0.994

TACGTGGCG
switch fluorescence ratio: 1.04

TAAGAATAAG
switch fluorescence ratio: 1.07

TGATGGTTGG
switch fluorescence ratio: 1.01

GAGTCCTACC
switch fluorescence ratio: 0.965

CGAAAACGTA
switch fluorescence ratio: 0.982

CCACAGATAA
switch fluorescence ratio: 1.09

AGTGCCCCT
switch fluorescence ratio: 1.01

TTAATGATAA
switch fluorescence ratio: 1.01

AGACCCTCAC
switch fluorescence ratio: 1.08

GGCGCGCGAA
switch fluorescence ratio: 0.966

CACCCCCTAG
switch fluorescence ratio: 1.24

CAAATGCCTT
switch fluorescence ratio: 1.08

ATTGGGGAAA
switch fluorescence ratio: 0.994

TGACTCGTTA
switch fluorescence ratio: 0.974

GGTATCTAAC
switch fluorescence ratio: 1.02

GCTAACCTTT
switch fluorescence ratio: 1.03

AGTAATCTTT
switch fluorescence ratio: 0.968

AAATACTCA
switch fluorescence ratio: 1.28

TCGCATTATT
switch fluorescence ratio: 1.58

GTTAACAAGG
switch fluorescence ratio: 1.01

GCGCGGCACC
switch fluorescence ratio: 1.08

TATTGGAGG
switch fluorescence ratio: 0.978

GCAATGGGA
switch fluorescence ratio: 1.35

GCCGGGGTGG
switch fluorescence ratio: 1.07

TGCGTCTTGC
switch fluorescence ratio: 0.936

CCATATGGAT
switch fluorescence ratio: 1.01

GGCCCCCCGA
switch fluorescence ratio: 1.06

TTTCTTTGG
switch fluorescence ratio: 1.02

GGGGAAGTTA
switch fluorescence ratio: 1.05

TTTGGTAGCG
switch fluorescence ratio: 1.04

ACACAACGCG
switch fluorescence ratio: 1.07

TGCACTGGCA
switch fluorescence ratio: 1.07

CCAATGATTA
switch fluorescence ratio: 0.993

CTATTGTTGC
switch fluorescence ratio: 1.09

GAAATGCAGC
switch fluorescence ratio: 1.03

GCTGGTCACC
switch fluorescence ratio: 0.974

TTGGCAGCTG
switch fluorescence ratio: 0.999

TCGCTGCGTC
switch fluorescence ratio: 0.953

CTATGTTTCA
switch fluorescence ratio: 0.981

TAATGCAGGG
switch fluorescence ratio: 0.99

CACGTAACCC
switch fluorescence ratio: 1.43

TGCTTGAGTT
switch fluorescence ratio: 1.06

ACGGGTGCTG
switch fluorescence ratio: 0.962

GAGACTCAAC
switch fluorescence ratio: 1.01

CTACTTGCGA
switch fluorescence ratio: 1.13

CGGGGACCGG
switch fluorescence ratio: 0.993

TTTGGCGTCC
switch fluorescence ratio: 1.01

GAAGTATTAC
switch fluorescence ratio: 1.77

ATTTTTGCCT
switch fluorescence ratio: 1.01

GGAGTCGCCA
switch fluorescence ratio: 0.973

AGCCAATTAG
switch fluorescence ratio: 1.03

ACGCACTTGA
switch fluorescence ratio: 1.32

TGCACCTCAG
switch fluorescence ratio: 1.08

ATATATGTGT
switch fluorescence ratio: 0.948

CGTGCGCATC
switch fluorescence ratio: 4.07

CCTCACGGCG
switch fluorescence ratio: 1.17

CCACTTTAGC
switch fluorescence ratio: 1.13

TTTCTGGCAG
switch fluorescence ratio: 0.999

AGGAGATGAG
switch fluorescence ratio: 0.981

GGGACAACGT
switch fluorescence ratio: 0.987

TCTGCAAAGA
switch fluorescence ratio: 1.04

TTACTGTCGT
switch fluorescence ratio: 0.962

ATGCATGGCA
switch fluorescence ratio: 0.991

TAGTGGACAG
switch fluorescence ratio: 1.05

GGTAGGAGCG
switch fluorescence ratio: 0.972

AGATCGTTC
switch fluorescence ratio: 0.965

CTGGGCGTCC
switch fluorescence ratio: 0.988

CGCAGAAGTC
switch fluorescence ratio: 1.13

GGTGAAGGCT
switch fluorescence ratio: 1.12

ATACGATGCC
switch fluorescence ratio: 1.09

TTCCGTCTGA
switch fluorescence ratio: 1.04

TGCATCCGT
switch fluorescence ratio: 0.986

TTCGACATTT
switch fluorescence ratio: 0.974

CGGTCTGGCT
switch fluorescence ratio: 0.999

ATATAAGAGG
switch fluorescence ratio: 0.977

ACGGTATAGC
switch fluorescence ratio: 1.07

ACCCGGTGAT
switch fluorescence ratio: 1.67

GGAGTTAAGA
switch fluorescence ratio: 1

GGTTTGATGG
switch fluorescence ratio: 1.02

TGTGGTTAAC
switch fluorescence ratio: 0.993

CGAAAAGGAT
switch fluorescence ratio: 0.99

AAAGCGATAT
switch fluorescence ratio: 1.7

CACTATCATT
switch fluorescence ratio: 1

CAGCAGGAAA
switch fluorescence ratio: 1.01

CGGCTGAAG
switch fluorescence ratio: 0.965

TAAGTCCAAG
switch fluorescence ratio: 0.999

ACCTCAGGCG
switch fluorescence ratio: 1.52

TTGCTGTTG
switch fluorescence ratio: 1.02

GTGGATGTGC
switch fluorescence ratio: 1.07

AATGCTAGGG
switch fluorescence ratio: 0.988

GTAAACTTCG
switch fluorescence ratio: 1.11

CCCGTGTTCG
switch fluorescence ratio: 0.916

CTGTAAGTAG
switch fluorescence ratio: 1.05

GGTAGTTTGC
switch fluorescence ratio: 1.03

TTATGTTTCG
switch fluorescence ratio: 1.01

AGTGAAGAC
switch fluorescence ratio: 1.13

CATCCTGGCA
switch fluorescence ratio: 1.46

CGATGATGTC
switch fluorescence ratio: 1.08

GGAATAAGTT
switch fluorescence ratio: 0.999

GGTAGGACGA
switch fluorescence ratio: 0.949

TACACGTC
switch fluorescence ratio: 1.02

TGATAGTTTA
switch fluorescence ratio: 0.967

CAGCGACGA
switch fluorescence ratio: 1.02

TGATTACTCT
switch fluorescence ratio: 1.01

CAGATAACAC
switch fluorescence ratio: 1.06

TTCAACGGCA
switch fluorescence ratio: 1.11

ATGCAGTGCT
switch fluorescence ratio: 1.03

TGCAGCATGG
switch fluorescence ratio: 1.16

GAGTTTTTAG
switch fluorescence ratio: 0.937

CCGAAAATTA
switch fluorescence ratio: 1.57

TAAATGGCT
switch fluorescence ratio: 0.985

GCGTGTTCAT
switch fluorescence ratio: 0.988

CGGCCGTCAT
switch fluorescence ratio: 1

CCTGACATTT
switch fluorescence ratio: 1.21

CTGGGGCCTG
switch fluorescence ratio: 1.01

AGAAGTTCT
switch fluorescence ratio: 0.956
